# PubChem BioAssay AID588855 (National Center for Advancing Translational Sciences (NCATS), 2011)
# The whole screen tested about 410,000 compounds, of which about 5,000 (1.2%) were called active. Inconclusive results, whose numbers are uncertain, are shown with a selection of clear calls. Calls follow the shape of the dose curve; as a rule, active = well fitted inhibition curve with a large enough effect; inconclusive = small, poorly fitted or top-dose-only effect; inactive = no such curve, though single readings can be large or run the other way. A potency beside an inconclusive call is a rough fit, not a confirmed value.
# Experiment: qHTS for Inhibitors of TGF-b; also: nearly all actives have a fitted effect of over 65% in size
# Settings: HepG2 CAGA-GFP TGF-b/SMAD3 reporter, GFP fluorescence, 18 h, TGF-beta stimulated, 500 pg/mL final; series mostly up to 46.1 µM; activity, negative = inhibition: at the top concentration
# Procedure, shortened: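 Inhibition was scored as loss of TGF-beta-induced (500 pg/mL final, 18 hours, 37 degrees C) GFP in HEPG2 cells carrying a CAGA-GFP reporter, in DMEM with 1% FBS. Well GFP was summed per cell; Activity was normalised to unstimulated and stimulated DMSO wells, then concentration-response fitting.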
# % is scaled to controls: 0 for no effect and ±100 for the full control effect; potency is read from the fitted curve at half-maximal effect; tags tell the direction and shape of the fitted curve.
SMILES,Potency,"activity, negative = inhibition"
CCN(CC)CCSc1nnc2c3ccccc3n(Cc3ccccc3)c2n1,"inconclusive: 35.5 µM [inhibitor, single point]",
CCOC(=O)C1(CC2CCCCO2)CCN(Cc2cn[nH]c2-c2cccc(F)c2)CC1 (stereo not drawn),"inconclusive: 14.1 µM [inhibitor, partial curve, poor fit]",
C=CCCN(Cc1ccc(OC)cc1)S(=O)(=O)c1ccccc1Br,"inconclusive: 22.4 µM [inhibitor, single point]",
COc1ccc2c(c1)c1c(c(=O)n(-c3cccc(C)c3)c(=O)n1CC(=O)N1CCCC1)n2C,,inactive: -39.2%
CCCCC(=O)OCC(=O)N1N=C(c2c[nH]c3ccccc23)C(O)C1c1ccc(OC)cc1 (stereo not drawn),"inconclusive: 35.5 µM [inhibitor, single point]",
Cc1ccc(-n2c(SCC(=O)NCCC3=CCCCC3)nc3n[nH]c(C)c3c2=N)cc1Cl,"inconclusive: 22.4 µM [inhibitor, partial curve, poor fit]",
Cc1ccc(C2=NN(C(=O)CCC(=O)O)C(c3cccc([N+](=O)[O-])c3)C2)cc1 (stereo not drawn),,inactive: -13.1%
O=S(=O)(Nc1cccc(F)c1)c1ccc2[nH]c3c(c2c1)CCCCC3,"inconclusive: 25.1 µM [inhibitor, single point]",
COc1cccc(C(=O)Oc2c(CN3CCOCC3)cc(Cl)c3cccnc23)c1,"inconclusive: 35.5 µM [inhibitor, single point]",
CC(Nc1nc(-c2ccc(F)cc2)cs1)c1nc2cc(Cl)c(Cl)cc2n1CCOCCO (stereo not drawn),"inconclusive: 20 µM [inhibitor, single point]",
CCOC(=O)c1cccc(NC(=O)CSc2nc3cc4ccccc4cc3[nH]2)c1,"inconclusive: 35.5 µM [inhibitor, single point]",
Cc1cccc(C)c1NC(=O)C(c1ccccc1)N1CCN(c2ccc(C(F)(F)F)cn2)CC1 (stereo not drawn),,inactive: -25.3%
O=C(N/N=C/c1ccccn1)c1ccc([N+](=O)[O-])cc1,"inconclusive: 6.31 µM [inhibitor, partial curve, poor fit]",
ClC(/C=N/n1cnnc1)=C/c1ccccc1,"inconclusive: 11.2 µM [inhibitor, partial curve]",
CC(CCc1ccc(O)cc1)N(C)CCc1ccccc1 (stereo not drawn),,inactive: 26%
COc1ccc(Nc2nc3ccccc3nc2NS(=O)(=O)c2ccc(Cl)cc2)cc1OC,"inconclusive: 6.31 µM [inhibitor, full curve]",
O=c1[nH]c(C2CCN(S(=O)(=O)c3ccc(C(F)(F)F)cc3)CC2)nc2c1nnn2Cc1ccc(F)cc1,"inconclusive: 20 µM [inhibitor, single point]",
CC(C)C(C(=O)NCc1ccco1)N(CC1CCCO1)C(=O)CNS(=O)(=O)c1ccc(F)cc1 (stereo not drawn),"inconclusive: 35.5 µM [inhibitor, single point]",
COc1ccc(SC[C@H](Cc2ccccc2)N2CCN(CCc3ccccc3)CCC2=O)cc1,"inconclusive: 22.4 µM [inhibitor, single point]",
CC(C)CC(=O)N1CCN(S(=O)(=O)c2ccc3ccccc3c2)CC1,"inconclusive: 20 µM [inhibitor, single point]",
COc1ccccc1CCNC(=O)C(=O)NCC(c1ccco1)S(=O)(=O)c1ccccc1 (stereo not drawn),,inactive: 0%
Cc1cccc(NC(=O)CSc2nc3ccccc3c3nc(CCc4c(C)n[nH]c4C)nn23)c1,"inconclusive: 35.5 µM [inhibitor, single point]",
COc1ccc(CN2CCC(n3nccc3NC(=O)CCCc3ccccc3)CC2)cc1C,"inconclusive: 35.5 µM [inhibitor, single point]",

SMILES,Potency,"activity, negative = inhibition"
O=C(c1cc(-c2cccc(O)c2)on1)N1CCN(C(c2ccccc2)c2ccccc2)CC1,"inconclusive: 35.5 µM [inhibitor, single point]",
CC(CCc1ccccc1)NC(=O)C(=O)N1CCOCC1 (stereo not drawn),,inactive: 2.83%
O=C(Nc1cc(S(=O)(=O)N2CCOCC2)ccc1OCC(F)(F)F)C1CCCC1,,inactive: -17%
COc1ccc(CCNC(=O)C2CC(c3cccc(F)c3)=NO2)cc1 (stereo not drawn),,inactive: -19.5%
Cc1cc2nn(-c3ccc(F)cc3)nc2cc1N,"inconclusive: 1.78 µM [inhibitor, partial curve, poor fit]",
Cc1ccccc1OCc1nnc(SCc2cc(=O)c3ccc(C)c(C)c3[nH]2)n1C,,inactive: -1.02%
c1nc(NCCN2CCOCC2)c2sc3nc(N4CCOCC4)c4c(c3c2n1)CCC4,"inconclusive: 14.1 µM [inhibitor, single point]",
COc1ccccc1NC1=NCC(=O)N1Cc1ccccc1,,inactive: -6.58%
COc1ccccc1-c1nc(S(=O)(=O)c2ccccc2)c(N2CCC(C)CC2)o1,"inconclusive: 31.6 µM [inhibitor, single point]",
O=C(NNC(=O)c1sc2cccc(Cl)c2c1Cl)NC1CCCCC1,,inactive: 16.7%
O=C(c1c[nH]c(C(=O)N2CCN(c3ccccc3F)CC2)c1)c1cccc(Cl)c1Cl,active: 10 µM,
COc1cccc(-c2nc(SCc3ccc(C)cc3)n3[nH]c(=O)cc3n2)c1,"inconclusive: 31.6 µM [inhibitor, partial curve, poor fit]",
O=C(NC1CCCN(Cc2ccc(Cl)cc2)C1)c1cccc(N2CCCC2=O)c1 (stereo not drawn),"inconclusive: 35.5 µM [inhibitor, single point]",
Cc1cccc(NC(=O)C(C)n2cc([N+](=O)[O-])cn2)n1 (stereo not drawn),"inconclusive: 35.5 µM [inhibitor, single point]",
CCOC(=O)c1c(C)oc2ncnc(N3CCN(c4ccccc4)CC3)c12,"inconclusive: 3.55 µM [inhibitor, full curve]",
CCN(CC)C(=O)C1=C(C)N(Cc2ccccc2)C(=O)C(CC(=O)NC2CC2)C1 (stereo not drawn),,inactive: -6.78%
Cc1ccc(NC(=O)c2ccc(-n3nncc3-c3ccccc3)cc2)cc1,,inactive: -0.647%
COC(=O)COc1ccc(S(=O)(=O)Nc2ccc3c(c2)OCCO3)cc1Cl,"inconclusive: 28.2 µM [inhibitor, single point]",
COC(=O)c1c(SCC(=O)Nc2cccc(Cl)c2C)[nH]c2ccccc2c1=O,,inactive: -1.45%
COc1cccc(CNC23CC4CC(CC(C4)C2)C3)c1OCc1ccccc1,"inconclusive: 35.5 µM [inhibitor, single point]",
COc1ccc(C(=O)NC(C)CCc2ccccc2)c(O)c1 (stereo not drawn),"inconclusive: 15.8 µM [inhibitor, single point]",
CCSc1cc(N2CCCC2)nc(-c2cccc(C)c2)n1,"inconclusive: 35.5 µM [inhibitor, single point]",
Cc1ccn2c(NC3CCCCC3)c(C(C)C)nc2c1,"inconclusive: 11.2 µM [inhibitor, partial curve, poor fit]",

SMILES,Potency,"activity, negative = inhibition"
COc1ccccc1NS(=O)(=O)c1cccc(NC(=O)c2[nH]c(C)c(C(C)=O)c2C)c1,"inconclusive: 35.5 µM [inhibitor, single point]",
O=C(Nc1ccc2c(c1)OCO2)c1cnc2n(c1=O)CCS2,"inconclusive: 12.6 µM [inhibitor, partial curve, poor fit]",
Cc1ccc(NC(=O)N2CCN(Cc3nc4ccc(C)cc4o3)CC2)c(Cl)c1,,inactive: -25.3%
Cc1ccc(C(=O)N2N=C(c3ccc(Br)cc3)CC2c2ccccc2O)cc1 (stereo not drawn),"inconclusive: 15.8 µM [inhibitor, single point]",
CCOC(=O)c1ccc(NC(=O)CC2C(=O)N(c3ccc(C)cc3)C(=O)N2C2CCCC2)cc1 (stereo not drawn),"inconclusive: 22.4 µM [inhibitor, single point]",
Cc1ccc(N(CC(=O)NCc2ccco2)C(=O)CNS(=O)(=O)c2ccc(F)cc2)c(C)c1,,inactive: -0.563%
COc1ccc2ccccc2c1C1NC(=O)c2ccccc2N1 (stereo not drawn),"inconclusive: 12.6 µM [inhibitor, single point]",
CCOC(=O)CC1=NN(c2ccccc2)C(=O)/C1=C\c1ccc(OC)cc1OC,"inconclusive: 35.5 µM [inhibitor, single point]",
CC(NC(=O)c1cc(-c2ccc3c(c2)OCO3)nc2ccccc12)C(C)(C)C (stereo not drawn),"inconclusive: 22.4 µM [inhibitor, single point]",
CCS(=O)(=O)c1oc(-c2ccc(F)cc2)nc1S(=O)(=O)c1ccc(Br)cc1,active: 2.82 µM,
O=C(Oc1ccccc1)N1CCCC1,,inactive: -16.3%
COC(=O)[C@H](C)NC(=O)NC1CCN(Cc2ccccc2)CC1,"inconclusive: 35.5 µM [inhibitor, single point]",
CC(=O)Oc1ccc(OC(C)=O)c(S(=O)(=O)c2ccc(C)c(C)c2)c1,,inactive: -1.11%
COc1ccccc1CN1CCN(C2CCN(C(=O)Nc3ccccc3)CC2)C(=O)C1=O,,inactive: 24.4%
CC1=C(C(=O)O)CC(S(=O)(=O)O)C1(C)C (stereo not drawn),,inactive: -15.5%
COC(=O)c1sccc1N/N=C/c1cccc(OC)c1O,"inconclusive: 14.1 µM [inhibitor, single point]",
COc1ccc(OC)c(N2C(=O)CC(Cc3ccc(Cl)cc3)C2=O)c1 (stereo not drawn),,inactive: -3.43%
CC1C/C(=N/O)C(C)CN1 (stereo not drawn),"inconclusive: 6.31 µM [inhibitor, single point]",
CC(C)CNC(=O)c1ccccc1-c1ccccc1C(=O)O,"inconclusive: 6.31 µM [inhibitor, single point]",
O=C(Nc1nc(COc2ccccc2)cs1)C12CC3CC(CC(C3)C1)C2,"inconclusive: 12.6 µM [inhibitor, partial curve, poor fit]",
CCN(CC(=O)NC1CCS(=O)(=O)C1)S(=O)(=O)c1cc([N+](=O)[O-])ccc1C (stereo not drawn),"inconclusive: 3.98 µM [inhibitor, full curve]",
CC1(C(=O)NS(=O)(=O)c2ccccc2OC(F)(F)F)CCN1C(=O)c1ccco1 (stereo not drawn),,inactive: 6.84%
